Data from PubChem BioAssay AID1963576 (National Center for Advancing Translational Sciences (NCATS), 2024).
About 60 (0.1%) of roughly 46,000 compounds were called active. Roughly 3% stayed inconclusive and do not appear here. The call rests on the fitted dose curve; in most records, active means well fitted inhibition curve with a large enough effect; inconclusive means small, poorly fitted or top-dose-only effect; inactive means no such curve, though single readings can be large or run the other way. The list shows a part of the results.

Experiment: Primary qHTS assay for Inhibitors of ovarian cancer metastasis using an organotypic tumor microenvironment (TME) model. Further: nearly all actives have a fitted effect of over 65% in size.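 On activity change, negative = inhibition: plate controls were DMSO wells for no effect and tomatine positive control wells for full effect.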
Conditions: SKOV3ip1-GFP adhesion/invasion on 3D omental model, fluorescence; series mostly up to 45.8 µM; activity change, negative = inhibition: at the top concentration
Outline: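 Adhesion/invasion was scored as fixed GFP-labeled SKOV3ip1 cell counts (488/509 nm), normalized to DMSO and tomatine controls. Cancer cells in serum-free medium, with four compound doses (0.36-46 umol/L), sat 2 hr at RT then 16 hr at 37 C on a 48 hr fibroblast/mesothelial/ECM culture.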

outcome, inactive:
O=C(CN1CCN(Cc2ccc(F)cc2Cl)C1=O)NCCc1ccc(Cl)cc1, COc1ccc(Cl)cc1NC(=O)CSc1nnc2[nH]c(=O)cc(C)n12, COc1ccccc1CNc1ncnc2c1c(-c1ccccc1)cn2-c1ccc(Br)cc1, COC(=O)c1cc(S(=O)(=O)N2CCN(c3cc(Cl)ccc3C)CC2)c[nH]1, Cc1ccc2c(c1)-c1c(cnn1CC(=O)N1CCN(c3cc(C)ccc3C)CC1)CO2, COCCc1nn2c(=O)cc(COC(=O)c3ccco3)nc2s1, COc1ccc(CCNC(=O)c2ccc(Cn3c(=O)c4ccccc4n(Cc4ccc(F)cc4Cl)c3=O)cc2)cc1OC, CC(C)(C)c1ccc(C(=O)Nc2ccc(OCc3cc(=O)n4ccsc4n3)cc2)cc1, CCN1CCN(C(=O)c2ccc3c(c2)N(Cc2ccccc2)C(=O)c2ccccc2S3(=O)=O)CC1, COc1cc(CSc2ncc(CO)n2Cc2ccc(C)cc2)cc(OC)c1, O=C(NCCC1=CCCCC1)C1CCN(C(=O)N2CCOc3ccccc32)CC1, CCOc1ccccc1CN1C(=O)c2ccccc2C1C(=O)NC1CCCCCC1 (stereo not given), Cc1cc2oc(C(=O)NCCc3ccc(S(N)(=O)=O)cc3)cc(=O)c2cc1C, COc1ccc(-c2nc(C)c(CCNC(=O)c3ccco3)s2)cc1, O=C(CSc1nc2c([nH]c3ccccc32)c(=O)n1-c1cccc(Cl)c1)NCc1ccccc1, O=C(CCCCCn1c(=O)[nH]c2ccccc2c1=O)N1CCN(c2ccc(Cl)cc2)CC1, CN(Cc1ccccc1)C(=O)Cn1c(=O)c2cccn2c2ccc(F)cc21, CCOC(=O)CNC(=O)CC(c1cc(OC)c(OC)c(OC)c1)N1Cc2ccccc2C1=O (stereo not given), CCOC(=O)c1ccc(NC(=O)CCn2c(=O)oc3ccccc32)cc1, CCc1ccc(NC(=O)C2CCCN(S(=O)(=O)c3cccc4cccnc34)C2)cc1 (stereo not given), Cc1ccc2c(C)c(C(=O)N3CCC(c4nc5ccccc5s4)CC3)oc2c1C, Cc1ccc(OCC(=O)N(Cc2ccc(Cl)cc2)CC2CCCO2)cc1C (stereo not given)

Activity change, negative = inhibition, inactive:
CC(C)c1nc2ccc(C(=O)NCCCN3CCN(c4ccccc4)CC3)cc2o1 3.19%, CC1CNc2c(cccc2S(=O)(=O)N[C@@H](CCCN=C(N)N)C(=O)N2CC[C@@H](C)C[C@@H]2C(=O)O)C1 (stereo not given in full) 0.933%, CCOc1ccc(-c2nc(C(N)=O)c3c(n2)n(-c2ccc4c(c2)OCO4)c(=O)n3CC)cc1 52.3%, CCN(CC)c1ccc(NC(=O)Cn2c3ncccc3c(=O)n2-c2ccccc2)c(C)c1 13%, Cc1ccc(C(=O)NCCC(C)C)cc1NC(=O)c1nsc2ccccc12 -22.9%, COc1cc2c(=O)c(C(=O)c3ccc(F)cc3)cn(Cc3cccc(F)c3)c2cc1OC -1.06%, Cc1ccc(CNC(=O)Cn2cc3c(n2)-c2c(oc(C(=O)N4CCOCC4)c2C)CC3)cc1 11.1%, Cc1cc(C)c2oc(C(=O)Nc3c(C(=O)c4ccccc4)oc4ccccc34)cc(=O)c2c1 17.2%, O=S(=O)(NCC(c1ccco1)N1CCOCC1)c1ccc(F)cc1 (stereo not given) -2.19%, CC1=C(C(N)=O)C(c2ccccc2F)n2nc(-c3ccc(Cl)cc3)nc2N1 (stereo not given) -5.96%, CC1CCN(c2csc3ccc(F)cc3c2=O)CC1 7.39%, Cc1ccccc1S(=O)(=O)Cc1ccc(C(=O)NCCc2ccccc2)o1 8.78%, Cc1ccccc1CNC(=O)C(=O)NCC(c1ccc2c(c1)OCO2)N1CCOCC1 (stereo not given) -11.1%, CN(CCCNC(=O)Cn1ncc2c([nH]c3ccccc32)c1=O)Cc1ccccc1 -7%, O=C(NCc1ccc(Cl)cc1)c1ccc(CNS(=O)(=O)c2ccc(F)cc2)cc1 -7.77%, Cc1cc(N2CCN(c3ccccc3)CC2)n2cnnc2n1 -15.7%, CC(=O)c1ccc(NC(=O)c2cc(S(=O)(=O)N3CCOCC3)ccc2C)cc1 0.841%, CCC(Sc1nc2cc(OC)c(OC)cc2c(=O)n1Cc1ccc(OC)cc1)C(=O)NCCOC (stereo not given) 0.563%, Cc1cc(C)cc(OCC(=O)N(Cc2ccc(Cl)cc2)C2CCS(=O)(=O)C2)c1 (stereo not given) 0.159%, COc1ccccc1CNC(=O)C1CCN(C2=NS(=O)(=O)C(c3ccc(C)c(C)c3)=C2C)CC1 2.12%, CC(C)Cc1nn2c(=O)cc(COC(=O)c3cccc(NS(C)(=O)=O)c3)nc2s1 7.93%, Cc1nc(N2CCOCC2)c2c(C(=O)N(C)c3ccccc3)c(C)oc2n1 1.12%, CCOc1ccc(-c2cn3c(n2)sc2cc(C(=O)N4CCCC(C)C4)ccc23)cc1 (stereo not given) 19.7%, Cc1nc(-c2ccc(F)cc2)sc1CCNC(=O)c1ccc(OC(C)C)cc1 -1.97%, COc1ccc(CNC(=O)CCCN2C(=O)CCn3nc(-c4cn(C)c5ccccc45)cc32)cc1 4.28%, Cc1ccc(-n2c(=O)c3cccnc3n2CC(=O)Nc2ccc(C)cc2Cl)cc1 6.25%, O=C(NCCc1ccc(Cl)cc1)C1(c2cccs2)CCOCC1 3.45%, COc1ccc(OC)c(NC(=O)Cn2ncc3c2-c2ccccc2OC3)c1 1.68%, Cc1c(Cl)cccc1NC(=O)CSc1nc(=O)[nH]c2c1CCCC2 -4.04%, O=C(NCCc1ccccc1)c1ccc(CSc2nc3cccnc3n2Cc2ccccc2F)cc1 3.87%, Cc1cccc(-c2nc(CS(=O)CC(=O)NCc3ccc(Cl)cc3)c(C)o2)c1 (stereo not given) 3.87%, O=C1CN(C(=O)c2ccc(S(=O)(=O)N3CCCCC3)cc2)C(c2ccc(F)cc2)c2cc(Cl)ccc2N1 (stereo not given) 10.9%, COc1ccc(-c2[nH]ncc2C(=O)NCc2cccc(Cl)c2)cc1 9.61%, O=C(NCC(c1cccnc1)N1CCOCC1)C(=O)Nc1ccc(Cl)cc1 (stereo not given) 2.04%, Cc1ccc2nc(-c3cccc(NC(=O)c4cccc5c(Cl)cccc45)c3)oc2c1 -0.634%, CCOC(=O)c1c(C)oc2nc(C)nc(NCC3CCN(Cc4ccccc4C)CC3)c12 8.17%, CCOC(=O)c1cc(-c2ccccc2)n(CC(=O)NCc2ccc(C)cc2)c1C -9.91%, COc1cccc(-c2cn3c(n2)sc2cc(C(=O)NCc4ccccc4F)ccc23)c1 24.1%, Cc1oc2ccc(O)c(CN3CCN(C)CC3)c2c1C(=O)Nc1ccc(C(C)C)cc1 -12.6%, Cc1ccc(-c2cc(C(=O)N3CCN(S(=O)(=O)c4ccc(Br)s4)CC3)[nH]n2)cc1C -25.8%, Cc1cccc(N2C(=O)C(CC(=O)Nc3ccc(F)cc3)N(C3CCCC3)C2=O)c1 (stereo not given) -2.05%, Cc1ccc(S(=O)(=O)n2nc(-c3ccccc3)nc2NCc2ccccc2Cl)cc1 3.53%, CCc1ccc(NC(=O)Cn2c(=O)n(Cc3ccc4c(c3)OCO4)c(=O)c3oc4ccccc4c32)cc1 7.66%, Cc1ccc(C)c(NC(=O)Cn2c(=O)n(Cc3nc(C)no3)c(=O)c3cc4c(cc32)OCO4)c1 -10.5%, Cc1cc(C)n2nc(NCc3ccccc3Cl)nc2n1 2.22%, COc1ccc(CNc2nc(-c3ccco3)nn2S(=O)(=O)c2ccc3ccccc3c2)cc1OC -0.643%, COC(=O)c1cc2occc2n1Cc1nc(-c2ccccc2C)oc1C 2.69%, COc1cc(C(=O)NCc2nnnn2-c2ccc(C)c(C)c2)cc(OC)c1OC 7.31%, COc1ccc(OCCn2cc(C(=O)c3ccco3)c3ccccc32)cc1 -27.7%, CCC(=O)N1CCc2cc(S(=O)(=O)NC(Cc3ccccc3)C(=O)NCc3ccc(C)cc3)ccc21 (stereo not given) -14.2%, CC(=O)Nc1ccc(NC(=O)CSc2cn(CC(=O)N(C(C)C)C(C)C)c3ccccc23)cc1 1.83%, Cc1ccc(-c2noc(CN(C3CCCCC3)S(=O)(=O)c3ccc(F)cc3)n2)cc1 -0.543%, CC(=O)N1c2ccc(S(=O)(=O)N3CCN(c4cc(Cl)ccc4C)CC3)cc2CC1C (stereo not given) 4.2%, O=c1c(-c2cc(-c3ccc(F)cc3)nc3c2COc2ccc(Cl)cc2-3)coc2ccc(F)cc12 1.75%, Cc1ccccc1COC(=O)c1ccc(-c2nnn(Cc3ccccc3F)n2)cc1 2.07%, CCN1CCN(C(=O)c2ccc3c(c2)N(Cc2c(F)cccc2Cl)C(=O)c2ccccc2S3)CC1 -20.4%, CCC(C)Sc1nc2c([nH]c3ccccc32)c(=O)n1C (stereo not given) 11.7%, CC(C)c1ccc(NC(=O)CSC2=Nc3ccccc3C3=NC(CCC(=O)NCc4ccc(F)cc4)C(=O)N23)cc1 (stereo not given) 2.32%, COc1cc2c(cc1OC)C(COc1cc(C)cc(C)c1)N(C(=O)c1ccc(S(=O)(=O)N3CCCC3)cc1)CC2 (stereo not given) 7.29%, COC(=O)c1ccc(CNC(=O)c2nc(Cn3nc(C)c(Br)c3C)no2)cc1 10.5%, CCOC(=O)C1CCCN(C(=O)Cn2ncc3c4ccccc4n(Cc4ccc(F)cc4)c3c2=O)C1 (stereo not given) 0.656%, O=C(COc1ccccc1)Nc1sc2c(c1C(=O)Nc1ccccc1)CCCCC2 -0.0817%, Cc1ccc(C)c(-c2ccc(=O)n(Cc3ccc(F)cc3Cl)n2)c1 8.2%, CCc1nc2ccc(C(=O)N3CCN(c4cccc(OC)c4)CC3)cc2nc1CC 9.65%, CCc1nnc(NC(=O)CSc2nc3c([nH]c4ccccc43)c(=O)n2-c2ccc(C)cc2)s1 2.03%, Cc1ccc2[nH]c(CSc3nnc(NC(=O)COc4ccccc4Cl)s3)cc(=O)c2c1 3.88%, CCN(CC)c1ccc(C(=O)Nc2ccc3nc(N(CC)CC)cc(C)c3c2)cc1 -9.34%, Cc1ccccc1NC(=O)C1CCN(S(=O)(=O)c2ccccc2)CC1 22.5%, O=S(=O)(NCC(c1ccco1)N1CCOCC1)c1ccc(Cl)cc1 (stereo not given) -3.34%, Cc1ccc(CNC(=O)c2sc3ncnc(N(C)C4CCCCC4)c3c2C)cc1 -2.24%, COc1cc(OC)c(OC)cc1CN1CCc2nc(N3CCN(c4ccccc4F)CC3)ncc2C1 -1.3%, COc1ccc(Nc2c(-c3ccco3)nc3cccc(C)n23)cc1 0.653%, O=C(Nc1ccccc1C(F)(F)F)Nc1c[nH]c(=O)[nH]c1=O -7.64%
